Laboratory results: the supplement of paper PMC3334620
Over roughly 33,000 sequences, “E-score (-0.5 to 0.5)” has its median near -0.036; the highest 2% begin near 0.37. Some of the results follow.

Molecular target: T1, Yer064c (UniProt P40041)
T1 sequence: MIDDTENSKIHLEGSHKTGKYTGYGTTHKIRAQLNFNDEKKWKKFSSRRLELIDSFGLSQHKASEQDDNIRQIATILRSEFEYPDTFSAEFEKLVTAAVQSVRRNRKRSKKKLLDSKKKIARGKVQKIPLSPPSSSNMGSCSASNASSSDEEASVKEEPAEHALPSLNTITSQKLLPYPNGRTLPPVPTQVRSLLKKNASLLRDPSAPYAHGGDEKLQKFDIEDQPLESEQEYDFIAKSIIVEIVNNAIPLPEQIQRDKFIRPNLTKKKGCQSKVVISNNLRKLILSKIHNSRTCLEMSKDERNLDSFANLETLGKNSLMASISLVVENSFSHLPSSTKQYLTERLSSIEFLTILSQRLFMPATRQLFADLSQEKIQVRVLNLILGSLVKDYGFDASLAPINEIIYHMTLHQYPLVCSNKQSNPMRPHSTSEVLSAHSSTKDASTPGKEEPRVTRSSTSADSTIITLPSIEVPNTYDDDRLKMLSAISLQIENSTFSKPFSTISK
Assay: PBM E-score (8-mer binding enrichment) (E-score (-0.5 to 0.5)); higher = stronger / more preferred TF binding; most listed sequences are background and not binding sites
Conditions: protein concentration: 200 nM; construct: GST-full length
Experimental: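 Universal 'all 10-mer' protein binding microarrays (Agilent AMADID 015681) probed with GST-tagged S. cerevisiae TFs (full-length or DBD) made by in vitro transcription/translation (PURExpress), about 100-200 nM. Bound TF was detected with fluorescent anti-GST. Each ungapped 8-mer (which stands for itself and its reverse complement) is scored by the PBM enrichment score (E-score), a modified Wilcoxon-Mann-Whitney statistic from -0.5 to +0.5, computed with the Universal PBM Analysis Suite. Scale: above 0.35 generally sequence-specific binding.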

| Sequence | PBM E-score |
| --- | --- |
| ACTGCTGG | -0.0181 |
| CGTGCACC | -0.309 |
| GATCACCC | 0.00825 |
| CTGCGAGA | 0.0231 |
| ACCTACTG | -0.201 |
| ACAATTCA | -0.0189 |
| ACACCTGC | -0.074 |
| ATGTATTC | -0.0916 |
| TCCTGTAA | 0.181 |
| CTCGGCCA | -0.0584 |
| AAAGTTTG | 0.0334 |
| ATACAGCG | -0.165 |
| CTTATAAC | -0.0131 |
| ACGAGTAA | 0.0578 |
| GCTCAGTA | 0.159 |
| CTACCCAC | -0.00457 |
| CTGTCAAA | 0.0473 |
| ATAGGCAT | -0.259 |
| ACTACTAT | 0.188 |
| GTCACACA | 0.267 |
| GATGGCGC | -0.261 |
| CGTGGATC | -0.145 |
| ACGTAAGA | 0.162 |
| GACTCGAA | 0.396 |
| TAATTCAA | 0.14 |

| Sequence | PBM E-score |
| --- | --- |
| ATCGGGCC | -0.333 |
| GCGAGTCC | 0.262 |
| CTGTCGCC | -0.328 |
| CTTGAGCC | 0.0632 |
| AATCAACA | 0.291 |
| CGCCTGGA | 0.00101 |
| GAGCTCTA | -0.181 |
| ACATCTAG | -0.0496 |
| CTTCATAC | -0.00264 |
| ATCAACAC | 0.261 |
| CTGAAAGA | 0.122 |
| CCGTGCGA | 0.132 |
| TCTAGACA | 0.128 |
| AAGCAGAC | -0.153 |
| AGTGGAAA | -0.0554 |
| CGAGACCG | -0.236 |
| GGCAATAC | -0.108 |
| GCCTTCGA | -0.202 |
| ACCATGGC | 0.0965 |
| AAAAGATA | -0.0154 |
| CCATCCCG | -0.127 |
| CTTATCCA | 0.116 |
| GATTTGCA | 0.0161 |
| TATCTCAA | 0.207 |
| AACCGATA | 0.0039 |

| Sequence | PBM E-score |
| --- | --- |
| AACTCCTG | 0.0255 |
| AATGGCGA | 0.113 |
| ACACCGTG | -0.109 |
| CCGGTTGC | -0.177 |
| GTGCTTTA | -0.0214 |
| GAGAGCGA | -0.0993 |
| CCTTTGCC | -0.17 |
| AATTCGTA | -0.141 |
| CACACATG | 0.0125 |
| GGTGTGAA | 0.0513 |
| CCTAATAG | -0.154 |
| ACATTAGA | 0.0255 |
| CGTTGCAG | 0.046 |
| GGCTTGAA | 0.00353 |
| CCAACCCG | -0.194 |
| AGACCCTG | -0.0302 |
| AACATGCA | 0.00292 |
| GGTTTTAA | -0.0576 |
| CCTAGCTC | -0.372 |
| TAATCGAA | 0.0261 |
| CAAGATGG | -0.0772 |
| CCACTGCA | -0.0355 |
| AAATGGGA | -0.15 |
| CAAATTGG | -0.0805 |
| GCGAAAAA | 0.0511 |

| Sequence | PBM E-score |
| --- | --- |
| AGACGGCC | -0.318 |
| CATCTAAG | -0.142 |
| AGACCTAC | 0.00472 |
| TCGATAAA | 0.0383 |
| CACTTTGG | -0.0471 |
| AGGGGTTA | 0.00933 |
| GCCTTCAC | -0.213 |
| CACGCTGA | -0.00287 |
| CAGCGCAG | 0.0815 |
| AAGACTCG | 0.373 |
| CAAGACCC | -0.227 |
| CCGCGGCG | -0.196 |
| CCAGTGAA | -0.0175 |
| GACGCCTA | -0.173 |
| CTGATCGA | 0.0155 |
| AATACAGC | -0.0906 |
| CGATTGTC | -0.065 |
| CAAAAGCC | -0.227 |
| TCCCCAAA | 0.0692 |
| GAAGGTAC | -0.0812 |
| AGGTCGTG | 0.145 |
| ACTTCATC | -0.022 |
| AGGCCACA | -0.378 |
| GTGGCCCA | -0.262 |
| AGGTAATA | -0.0278 |

| Sequence | PBM E-score |
| --- | --- |
| ATCCCTCG | -0.152 |
| GTTTGGTA | 0.133 |
| CCTCACAG | -0.133 |
| GAGGCCAC | -0.319 |
| CGTGATAA | 0.0558 |
| AGTTCACC | 0.0223 |
| ATTCTTCG | -0.00284 |
| AAAGCCTT | -0.174 |
| CTGCATAA | 0.0634 |
| CAATGATA | 0.0669 |
| ATTCGATG | 0.0769 |
| ATCGCTCA | 0.0405 |
| ACAGCCCA | -0.175 |
| ATTTGAGC | 0.0922 |
| CATAGGTA | 0.0277 |
| ATGACATA | 0.132 |
| CGATGCAA | -0.331 |
| CCGACCGG | -0.228 |
| AGTGTGCA | 0.0252 |
| ACGTTGAT | 0.217 |
| CTGGCGGC | -0.153 |
| CAAGACGA | 0.0536 |
| GTAGCGTA | -0.164 |
| TCAATGGA | 0.0976 |
| GAGAACCC | -0.106 |

| Sequence | PBM E-score |
| --- | --- |
| ATACTTTG | 0.0464 |
| GGTCGTGA | -0.0505 |
| AATTATCT | -0.106 |
| AGATGCAG | 0.0295 |
| CTCTTATA | 0.116 |
| CAGTGCAC | -0.186 |
| GACCCCAC | -0.0798 |
| AAAAACAC | -0.168 |
| ACCTGACC | -0.13 |
| AAATTGTG | 0.0122 |
| AAGGCTGA | 0.00065 |
| AAGAACAC | -0.0835 |
| AGCACAAC | -0.0948 |
| CTGGTTTC | -0.0697 |
| ACCGAACT | -0.0318 |
| AATCAAAA | 0.219 |
| CCGCGCAC | -0.234 |
| GAGGCAGA | -0.133 |
| ACGTAGTC | 0.39 |
| CCCGCCGG | -0.293 |
| CAATTAAC | 0.082 |
| ACGCAGCC | -0.137 |
| AAAAGCCG | -0.213 |
| AAATTAGT | 0.27 |
| CCAGTGCC | -0.189 |

| Sequence | PBM E-score |
| --- | --- |
| ATTTTGCA | 0.0214 |
| AGCCGTAT | -0.082 |
| GACCGGCC | -0.196 |
| CCTATAAA | -0.101 |
| CGGGAAAA | -0.121 |
| GCCGGCGA | -0.0124 |
| GACAACAA | 0.156 |
| AGCGGAAG | -0.191 |
| GAGTGCAC | -0.108 |
| AATTTTCC | -0.18 |
| AGTGAAGA | -0.0368 |
| AGAGATAT | -0.132 |
| GGGAGCCC | -0.261 |
| AGCCATGA | 0.282 |
| AACATTTA | -0.105 |
| CAGATTAG | 0.136 |
| CTGTTGTA | 0.115 |
| AAAGAACA | -0.0705 |
| TAACTTCA | 0.014 |
| GATTGGGA | 0.0503 |
| CTCATACC | 0.155 |
| GATGTCGC | -0.27 |
